Experimental data published in publication PMC4336329 (PLoS ONE, 2015).
Among all 310,000 compounds or so, about 2,200 (0.71%) showed an effect of 50% or more. The effect is printed as a negative number. This is one part of the list. Where a SMILES comes first, the peptide text is derived from it. The star is where a group is joined. Boc = CC(C)(C)OC(=O)*; OtBu = CC(C)(C)O*

Target: human ether-à-go-go-related gene (hERG) potassium channel (human, UniProt Q12809)
Test: primary screen, population patch clamp on CHO cells stably expressing hERG

human ether-à-go-go-related gene (hERG) potassium channel, sequence (Q12809 whole entry, looked up): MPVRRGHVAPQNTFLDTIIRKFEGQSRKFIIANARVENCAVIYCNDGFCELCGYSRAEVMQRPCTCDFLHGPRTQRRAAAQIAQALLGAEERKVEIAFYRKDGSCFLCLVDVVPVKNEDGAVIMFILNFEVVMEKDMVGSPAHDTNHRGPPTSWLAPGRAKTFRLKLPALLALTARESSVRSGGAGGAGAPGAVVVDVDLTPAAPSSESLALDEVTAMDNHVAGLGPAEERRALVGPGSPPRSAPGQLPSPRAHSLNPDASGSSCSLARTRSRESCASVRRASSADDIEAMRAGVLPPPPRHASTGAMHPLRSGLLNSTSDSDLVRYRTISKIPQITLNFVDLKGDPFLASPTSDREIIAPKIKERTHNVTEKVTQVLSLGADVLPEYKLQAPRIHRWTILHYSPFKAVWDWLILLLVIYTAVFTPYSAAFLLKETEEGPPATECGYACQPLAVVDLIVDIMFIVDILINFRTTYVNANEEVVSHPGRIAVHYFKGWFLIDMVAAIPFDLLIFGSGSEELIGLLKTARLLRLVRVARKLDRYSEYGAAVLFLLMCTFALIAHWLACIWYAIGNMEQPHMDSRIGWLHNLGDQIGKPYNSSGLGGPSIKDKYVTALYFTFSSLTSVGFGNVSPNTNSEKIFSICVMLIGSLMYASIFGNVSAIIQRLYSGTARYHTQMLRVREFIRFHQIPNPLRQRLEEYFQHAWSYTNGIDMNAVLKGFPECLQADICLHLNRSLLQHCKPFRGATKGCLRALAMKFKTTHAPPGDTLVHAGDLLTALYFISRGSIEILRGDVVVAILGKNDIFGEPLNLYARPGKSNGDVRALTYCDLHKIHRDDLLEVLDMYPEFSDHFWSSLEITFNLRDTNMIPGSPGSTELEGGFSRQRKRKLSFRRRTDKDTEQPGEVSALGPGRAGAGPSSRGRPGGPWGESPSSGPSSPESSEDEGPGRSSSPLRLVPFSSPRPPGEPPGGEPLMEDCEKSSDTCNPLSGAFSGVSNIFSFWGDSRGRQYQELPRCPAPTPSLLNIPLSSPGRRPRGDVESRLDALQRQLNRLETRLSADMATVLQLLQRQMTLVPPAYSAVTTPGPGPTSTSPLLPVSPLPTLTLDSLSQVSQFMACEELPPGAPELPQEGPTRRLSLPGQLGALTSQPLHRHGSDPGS

| Structure (SMILES) | hERG current change (%, negative = inhibition) at 1uM [%] |
| --- | --- |
| CCOC(=O)c1ccc(NC(=O)c2c(NC(=O)CCC(=O)O)sc3c2CCCCC3)cc1 | 14.7 |
| CC(=O)c1c(C)[nH]c(C(=O)CSc2nnc(-c3cccs3)n2Cc2ccccc2)c1C | -0.253 |
| CN1/C(=C\C(=O)CSc2nncn2C)C(C)(C)c2ccccc21 | -0.577 |
| CCOc1ccc(N=C2NC(=O)S/C2=C\c2ccc(O)cc2)cc1 | 9.65 |
| CCOC(=O)C1=C(C)NC2=C(C(=O)CCC2)C1c1cn(Cc2ccc(Cl)cc2Cl)nc1-c1ccccc1 (stereo not drawn) | 6.72 |
| O=C(O)Cc1cccc2ccccc12 | 12.8 |
| C=CCNCCOCCOc1ccccc1-c1ccccc1.O=C(O)C(=O)O | -4.62 |
| Cc1cc(=O)[nH]c2ccc(S(=O)(=O)NCc3ccccc3)cc12 | -8.39 |
| COc1cc2c(cc1NC(=O)c1cccc([N+](=O)[O-])c1C)oc1ccccc12 | -6.52 |
| COC(=O)C(Cc1ccc(O)cc1)NC(=O)C(CC(=O)OC(C)(C)C)NC(=O)OC(C)(C)C (stereo not drawn) (Boc-Asp(OtBu)-Tyr-OMe; configuration not given here) | 2.84 |
| COc1ccc(-c2cccc(C(=O)NCC(=O)O)c2)cc1 | 2.01 |
| CC1=NN(C(=O)c2cccc(Cn3nc(C)c([N+](=O)[O-])c3C)c2)C(O)(C(F)(F)F)C1 (stereo not drawn) | -0.0693 |
| CC(C)CCNC(=O)CN1C(=O)CN=C(c2ccccc2)c2ccccc21 | 10 |
| O=C(NCCS(=O)(=O)N1CCCCC1)c1ccccc1 | 8.41 |
| Cc1cc2cc(C#N)c(N3CCN(S(C)(=O)=O)CC3)nc2cc1C | 0.625 |
| CCn1ncc(Br)c1C(=O)NC(C)c1ccccc1 (stereo not drawn) | 6.29 |
| Cc1ccc(/C=N/NC(=O)c2csc3c2CCCC3)cc1 | 12.5 |
| O=C(Nc1ccccc1)c1ccc(S(=O)(=O)N2CCCC2)cc1 | -0.0057 |
| O=C1c2ccccc2C(=O)N1CCc1nc2ccccc2c(=O)n1CCCn1ccnc1 | -35.8 |
| Cc1sc2nc(C(C)C)oc(=O)c2c1C | 8.75 |
| COCCNC(=O)/C(=C/c1ccccc1Cl)c1ccccc1 | 13.7 |
| COc1ccc(NC(=O)c2ccc(=O)[nH]c2)cc1S(=O)(=O)N1CCCCC1 | 0.308 |

| Structure (SMILES) | hERG current change (%, negative = inhibition) at 1uM [%] |
| --- | --- |
| Cc1ccc(N2C(=S)SC3CS(=O)(=O)CC32)cc1 (stereo not drawn) | 6.01 |
| Cc1nc2c3c(sc2c(=O)[nH]1)NC(=O)CC3c1ccccc1Cl (stereo not drawn) | 5.23 |
| COc1ccccc1CNC(=O)CCNC(=O)Cn1ccc2ccccc2c1=O | 4.62 |
| N=C1c2ccccc2CN1c1ccc(F)c([N+](=O)[O-])c1 | 7.4 |
| CC(=O)Nc1ccc(NS(=O)(=O)c2cc(-c3n[nH]c(=O)c4ccccc34)ccc2C)cc1 | 13.3 |
| CCOC(=O)c1c(C)[nH]c(C(=O)OCC(=O)c2ccccc2)c1C | 8.37 |
| Cc1ccc(NC(=O)NNS(=O)(=O)c2ccc(Br)cc2)cc1 | 9.15 |
| COc1ccccc1-n1c(SCC(=O)Nc2cccc(S(N)(=O)=O)c2)nc2ccccc2c1=O | 11.8 |
| CCN(CC)CC.CCn1c(=S)sc2c(=O)n(-c3ccccc3)c(=S)[nH]c21 | 10.8 |
| COc1ccccc1-n1c(=O)c2c3c(sc2n2c(SC(C)C)nnc12)CCC3 | 17 |
| CNC(=O)Oc1cccc2ccccc12 | 12.7 |
| CSCSC1=C(C#N)C(c2ccc(Cl)cc2)C(C(C)=O)=C(C)N1 (stereo not drawn) | -0.151 |
| CCC1CCCCN1C(=O)c1ccc(OC2CCN(C(=O)CCOC)CC2)cc1 (stereo not drawn) | 13.6 |
| COc1ccc(CCNC(=O)C(=O)NCC2CCCO2)cc1 (stereo not drawn) | -8.46 |
| Cc1cc(OCCCCCN2CCCC2)ccc1Cl.O=C(O)C(=O)O | -15 |
| CCc1ccccc1NC(=O)N1CCCc2ccccc21 | 6.9 |
| Cc1nn(-c2ccccc2)c(Cl)c1C(=O)NCC(=O)O | 23.8 |
| Cc1ccc(Nc2c([N+](=O)[O-])cc(C(=O)N3CC(=O)Nc4ccccc43)cc2[N+](=O)[O-])c(C)c1 | 14.9 |
| Cc1c(C(=O)Nc2c(C)n(C)n(-c3ccccc3)c2=O)oc2ccc(Cl)cc12 | -12.5 |
| Nc1[nH]n(-c2ccccc2)c(=O)c1N=Nc1ccccc1 | 2.63 |
| CCCCCCNC(=O)c1cc(-c2ccco2)nc2ccccc12 | 7.12 |
| Cc1ccc(-c2cc(C)nc3nc(N)nn23)cc1 | 4.08 |

| Structure (SMILES) | hERG current change (%, negative = inhibition) at 1uM [%] |
| --- | --- |
| O=C(CCS(=O)(=O)c1ccc(F)cc1)Nc1nnc(-c2ccc(F)cc2)o1 | -1.98 |
| COc1ccc2oc(=O)c(C(=O)N3CCN(C(=O)c4ccccc4)CC3)cc2c1 | 14.2 |
| COc1ccc(Cl)cc1C(=O)OCC(=O)c1ccc[nH]1 | 11.3 |
| COc1nccc(C(F)(F)F)c1C(=O)Nc1ccc(Cl)cc1 | 5.29 |
| O=C(CCN1CCN(c2ccccc2)CC1)Nc1ccccc1 | 5.75 |
| C=CCc1c(C)nc(N2CCSCC2)[nH]c1=O | 13.2 |
| O=C(NNc1nc(-c2ccccc2)cs1)c1ccc(F)cc1 | 3.41 |
| COc1ccc2c(c1OC)C(=O)OC2CC(=O)c1ccc(O)c(O)c1 (stereo not drawn) | 20.6 |
| Cc1cc(C(=O)N2CCN(C(=O)C3CCCO3)CC2)no1 (stereo not drawn) | 3.66 |
| Cc1cccc(OCC(=O)N2CCN(Cc3ccncc3)CC2)c1.O=C(O)C(=O)O | 10.2 |
| Cn1nccc1C(=O)OCC(=O)Nc1cccc(Cl)c1 | 6.89 |
| COc1ccc([N+](=O)[O-])cc1NC(=O)c1ccc(CN(c2ccccc2)S(C)(=O)=O)cc1 | 4.3 |
| O=C(NCC1CCCO1)c1ccccc1-c1nc(-c2ccc(Cl)cc2)no1 (stereo not drawn) | -0.554 |
| O=C(CNC(=O)c1ccc(Br)cc1)c1ccc(Br)cc1 | 14.6 |
| CCN(CCNC(=O)CN1CCN(Cc2ccc(Cl)cc2)C1=O)c1ccccc1 | -8.93 |
| CCc1ccc(NC(=O)CSCc2ccc(C(=O)O)cc2)cc1 | 10.8 |
| CCc1nnc(NS(=O)(=O)c2ccc(NC(=O)c3cccc(Br)c3)cc2)s1 | 19.8 |
| COc1ccccc1OCC(=O)N1CCCC(N(C)Cc2ccccc2)C1 (stereo not drawn) | -17.9 |
| COc1ccc(N(CC(=O)Nc2ccccc2C(=O)NCc2ccco2)S(C)(=O)=O)cc1 | 5.32 |
| COc1ccc2c(c1)[C@@H]1[C@H](CO2)[C@H](c2ccccc2)[C@]2(C)C(=O)Nc3ccc(C)cc3C(=O)N12 | -6.68 |
| CCn1c(C)cc(/C=C2/SC(=O)N(CC(=O)N3CCCC3)C2=O)c1C | 8.82 |
| COc1ccc(C(=O)NC2CC2)cc1OC1CCN(Cc2ccc(Cl)cc2)CC1 | -86.8 |

| Structure (SMILES) | hERG current change (%, negative = inhibition) at 1uM [%] |
| --- | --- |
| CN(C)c1nc(N(C)C)nc(N(C#N)CCOc2ccccc2)n1 | 14.9 |
| Cc1cccc(C(=O)NC(C)C(=O)NC(c2nc3ccccc3[nH]2)C(C)C)c1 (stereo not drawn) | 6.44 |
| COCCN(CC1CCCN(C2Cc3ccccc3C2)C1)C(=O)c1cccs1 (stereo not drawn) | -35.4 |
| CC1CCCN(CC(=O)N2CCCc3ccccc32)C1.[O-][Cl+3]([O-])([O-])O (stereo not drawn) | 9.38 |
| CCN(C(=O)CSc1nc2ccccc2c(=O)n1-c1ccc(C)cc1)C1CCS(=O)(=O)C1 (stereo not drawn) | 1.16 |
| CCCCCCC(C)OC(=O)c1ccccc1C(=O)O (stereo not drawn) | 14.4 |
| COc1cc(/C=C2\SC(=S)N(CCC(=O)Nc3cccc(O)c3)C2=O)cc(OC)c1OC | 12.4 |
| O=P(O)(Oc1ccccc1)OC(c1ccccc1)C(F)(F)F (stereo not drawn) | 18.5 |
| Cc1cc(C)nc(NNC(=O)NC2CCCCC2)n1 | 2.67 |
| CCn1cc(C(=O)N2CCCCC2)c(=O)c2cc(S(=O)(=O)N3CCC(C)CC3)ccc21 | -6.51 |
| CC(C(=O)Nc1ccc2c(c1)OCCO2)n1nnc(-c2ccccc2)n1 (stereo not drawn) | 8.75 |
| O=C(Cn1c(=O)oc2ccccc21)NCC1COc2ccccc2O1 (stereo not drawn) | 19.6 |
| COc1ccccc1/C=C/C(=O)OCC(=O)NNC(=O)c1ccccc1 | 5.96 |
| O=C(CSCc1ccc(Cl)cc1Cl)Nc1c[nH]c(=O)[nH]c1=O | 12.4 |
| CCn1cc(S(=O)(=O)NCCc2ccc(F)cc2)cn1 | -2.56 |
| O=C(CNS(=O)(=O)c1cccs1)N1CCCC1 | 12.1 |
| Cc1cccc(N(C(=O)Cn2nnc3ccccc32)C(C(=O)NC(C)(C)C)c2ccsc2)c1C (stereo not drawn) | 14.5 |
| CCN(c1ccccc1)S(=O)(=O)c1ccc(Cl)c(C(=O)N2CCCC2)c1 | -0.349 |
| O=C(NN1C(=O)c2ccccc2NC1c1cccnc1)c1ccccc1 (stereo not drawn) | 3.45 |
| CCC(=O)c1ccc(OCC(O)Cn2nc(C)c(C(C)=O)c2C)cc1 (stereo not drawn) | 4.75 |
| CCOc1ccc(CCNC(=O)c2cccc(S(=O)(=O)N3CCOCC3)c2)cc1OCC | 5.02 |
